For this assay, the target named is T1, human B7-1 expressed on transfected human fibroblasts (human, UniProt P33681 35-288).
T1 construct: whole, on cells; also called CD80
T1 sequence (looked up): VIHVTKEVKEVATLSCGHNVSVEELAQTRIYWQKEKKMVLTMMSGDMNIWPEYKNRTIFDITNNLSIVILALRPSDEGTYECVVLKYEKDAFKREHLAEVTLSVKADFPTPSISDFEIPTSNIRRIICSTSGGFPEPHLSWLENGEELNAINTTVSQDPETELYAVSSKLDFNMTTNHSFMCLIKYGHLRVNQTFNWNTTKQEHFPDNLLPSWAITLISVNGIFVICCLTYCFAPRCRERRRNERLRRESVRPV
The assay can be described thus: flow cytometry on human fibroblasts transfected with human B7-1. An excerpt:
The binding characteristics of pCTLA4-Ig were compared to those of human CTLA4-Ig using flow cytometric analysis with human fibroblasts transfected with either human B7-1 or porcine B7-2. For these experiments, the concentration of pig and human CTLA4-Ig were equivalent as assessed by ELISA.

B1: pCTLA4-Ig (extracellular domain of porcine CTLA-4 fused through the linker GGSGGAA to hinge, CH2 and CH3 of human IgG1) (Fc fusion)
chain: KGMHVAQPAVVLANSRGVASFVCEYGSAGKAAEVRVTVLRRAGSQMTEVCAATYTVEDELTFLDDSTCTGTSTENKVNLTIQGLRAVDTGLYICKVELLYPPPYYVGMGNGTQIYVIDPEPCPDSDGGSGGAA[letters of human IgG1 Fc left out]
notes: It may still carry the signal peptide, because the 5' primer starts at the ATG; Expressed in DAP.3 or CHO-K1 cells and purified on protein G; also called porcine CTLA4-Ig; soluble pCTLA4-Ig
Consider B1, for which the binding result is on record as “no binding”.

These data come from patent US7432344 (IMPERIAL COLLEGE INNOVATIONS, dated 2008).
